According to the supplement of paper PMC10338343:
± gives the standard deviation. Only a part is listed here, and it is no random draw.

Each sequence was assayed on MIWI (PIWIL1) piRISC loaded with piRNA #1 (30 nt) (assay: pre-steady-state target cleavage rate (min^-1); MIWI and MILI are mouse PIWI proteins and EfPiwi is from a freshwater sponge; tags in brackets are library labels; higher = faster piRNA-guided slicing of the target). Conditions: guide: piRNA #1 5'p-UGAGGUAGUAGGUUGUAUAGUAUCCAGAGG; auxiliary factor: 500 nM mouse GTSF1.
How it was run: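 Cleave-'n-Seq used a transcribed, DNA-blocked target RNA library at 0.1 nM and active affinity-purified piRISC with one synthetic guide at 1 nM, with or without 500 nM GTSF1 partner protein, in HEPES–potassium acetate buffer at 33 °C for 0–8 or 0–960 min. Uncleaved targets were sequenced and normalised to depth and to weakly complementary targets, and three trials were pooled with k3 capped at 0.0001 min^-1. The pre-steady-state cleavage rate was estimated by a burst-and-steady-state fit.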

Q: GGUGUGGAUACUAUACUACCUACUACCUCA was tested. Which “pre-steady-state target cleavage rate” value did it give?
A: The value was 1.33 ± 0.09.

Q: How did the “pre-steady-state target cleavage rate” value turn out when GGAGACCUAUCUAUACAUCCUACUUCCUCA was run?
A: The value was 0.0462 ± 0.011.

Q: Which “pre-steady-state target cleavage rate” value does the source give for CCUCUGGAUACAAUACAACCUUCUACCUCA here?
A: Its value is 0.672 ± 0.043.

Q: Which “pre-steady-state target cleavage rate” value does the source give for GCUCUGGUUACUAUACAACCUACUACCUGA here?
A: Its value is 0.96 ± 0.11.

Q: Which “pre-steady-state target cleavage rate” value does the source give for GGAGACCUAUGUAUACAACCUACAUACCUCA here?
A: The value was 0.0147 ± 0.0034.

Q: CCUCUGGAUACUAUAGAACCUACUACCUGA was tested. Which “pre-steady-state target cleavage rate” value did it give?
A: Its value is 0.158 ± 0.033.

Q: How did the “pre-steady-state target cleavage rate” value turn out when GGAGACGAUGACUAUACAACCUACUACCUCA was run?
A: Its value is 1.41 ± 0.14.

Q: How did the “pre-steady-state target cleavage rate” value turn out when GCUCAUGGAUACUAUACAACCUACUACCUCA was run?
A: Its value is 1.98 ± 0.1.

Q: Which “pre-steady-state target cleavage rate” value does the source give for GGAGACCUAUCUAUACUACGUACUACCUCA here?
A: The value was 0.00408 ± 0.0024.

Q: Which “pre-steady-state target cleavage rate” value does the source give for GGAGACCUAACUAUACAACCUACUACCUACA here?
A: The value was 0.983 ± 0.11.

Q: For GGAGACGAUACUAAACAACCUAGUACCUCA, which “pre-steady-state target cleavage rate” value is on record?
A: Its value is 0.365 ± 0.043.

Q: How did the “pre-steady-state target cleavage rate” value turn out when CCUCUGGAUACUAGACAACCUACUACCUCA was run?
A: Its value is 1.72 ± 0.098.

Q: For CCUCUGGAUACUAUACUACCUACUACCUGA, which “pre-steady-state target cleavage rate” value is on record?
A: The value was 0.9 ± 0.088.

Q: Which “pre-steady-state target cleavage rate” value does the source give for GCUCUGGAUACUAUUCAACCUUCUACCUCA here?
A: Its value is 0.589 ± 0.031.

Q: Which “pre-steady-state target cleavage rate” value does the source give for GGUCUGAAUACUAUACAACCUACUACCUCA here?
A: Its value is 1.8 ± 0.097.

Q: With CCUCUCGAUACUAUACUACCUACUACCUCA as the sequence, how does the “pre-steady-state target cleavage rate” value read?
A: The value was 1.81 ± 0.12.
